Measurements reported in PubChem BioAssay AID2100 (National Center for Advancing Translational Sciences (NCATS), 2009).
Hit rate of the full screen: of about 300,000 compounds, about 1,200 (0.4%) were called active. The inconclusive results got no clear call from the source; some entries with a clear call stand among them for comparison. The call rests on the fitted dose curve; in most records, active means well fitted inhibition curve with a large enough effect; inconclusive means small, poorly fitted or top-dose-only effect, or another doubt; inactive means no such curve, though single readings can be large or run the other way. Potencies beside an inconclusive call are fits to weak or partial responses and may not hold up.
Potency means the concentration at half of the fitted maximal effect.
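Wherever activity change, negative = inhibition is given: 0% = full enzyme reaction and -100% = no-enzyme basal signal.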

The compounds below were run against Lysosomal alpha-glucosidase (Homo sapiens) (UniProt P10253) (assay: qHTS Assay for Inhibitors and Activators of Human alpha-Glucosidase Cleavage of Glycogen). Conditions: recombinant GAA, glycogen substrate, Amplex Red glucose oxidase fluorescence; activity change, negative = inhibition: at 76.4 µM (top of the series) unless noted.
In short: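 Recombinant human alpha-glucosidase (4 nM final) hydrolysed bovine liver glycogen (30 ug) for 40 min at 37 C in pH 5.0 citrate/phosphate with 0.01% Tween-20. Released glucose detected by glucose oxidase/Amplex Red, Ex 573/Em 610 nm. Compounds up to 77 uM; AC50 from Hill fits.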
With CC1=CCCC(C)(C)C1/C=C/C(C)=N/NC(=O)c1ccncc1 (centres undefined) the Potency was inconclusive: 20 µM [inhibitor, partial curve].
CCCc1c(C(=O)NNc2ccc(C)cc2)cnn1-c1ccccc1 was tested, and the Potency was inconclusive: 50.1 µM [inhibitor, single point].
In the case of Cc1ccc(S(=O)(=O)NNC(=S)NC(C)(C)C)cc1, the Potency is reported as inconclusive: 19.8 µM [inhibitor, partial curve].
CC(C)(C)c1ccc(-c2nc(C#N)c(NCc3ccncc3)o2)cc1 was tested, and the Potency was inconclusive: 39.8 µM [inhibitor, partial curve].
In the case of COc1cc(/C=C/C(=O)CC(=O)/C=C/c2ccc(O)c(OC)c2)ccc1O, the Potency is reported as inconclusive: 39.5 µM [inhibitor, single point].
For Cc1nn(C(C)(C)C)c(OC(=O)c2ccc3c(c2)OCO3)c1S(=O)(=O)c1ccccc1, the Potency was inconclusive: 50.1 µM [inhibitor, single point].
For O=C(CN1CCN(c2ccccc2O)CC1)Nc1ccc([N+](=O)[O-])cc1Br, the Potency was inconclusive: 6.31 µM [inhibitor, full curve, poor fit].
In the case of N#C/C(=C\Nc1ccc(Cl)cn1)S(=O)(=O)c1ccccc1, the Potency is reported as “inactive”.
With CCOc1ccc(-n2c(=O)c3c(C)c(C)sc3n(CC(=O)C(C)(C)C)c2=O)cc1 the Potency was “inactive”.
In the case of CC(C)=NNC(=O)c1c(O)c2ccccc2[nH]c1=O, the Potency is reported as inconclusive: 20 µM [inhibitor, partial curve].
For COc1cc(/C=N/NC(=O)c2cc(C)oc2C)ccc1O, the Potency was inconclusive: 31.6 µM [inhibitor, partial curve, poor fit].
With CNC(=S)NNc1nncc2ccccc12 the Potency was active: 10 µM.
Fc1ccccc1/C=N/Nc1nn[nH]n1 was tested, and the Potency was inconclusive: 14.1 µM [inhibitor, partial curve].
COc1cc(OC)cc(C(=O)Nc2cc(-c3nc4cc(Cl)ccc4o3)ccc2Cl)c1 was tested, and the Potency was “inactive”.
CCOc1ccc(/C(CCC(=O)O)=N/NC(=S)NC(C)C)cc1 was tested, and the Potency was inconclusive: 17.6 µM [inhibitor, partial curve].
In the case of CCc1nnc(SCc2c(F)cccc2Cl)c2cc3sccc3n12, the Potency is reported as “inactive”.
For CN(C)c1ccc(NC(=O)CSc2nnc(-c3ccco3)c(-c3ccco3)n2)cc1, the Potency was inconclusive: 39.8 µM [inhibitor, single point].
In the case of Cc1ccc(-c2nnnn2C2C/C(=N\NC(N)=S)C3OCC2O3)cc1 (centres undefined), the Potency is reported as inconclusive: 24.9 µM [inhibitor, single point].
For COc1ccccc1N1CCN(/N=C/c2cccc(OC)c2O)CC1, the Potency was inconclusive: 22.4 µM [inhibitor, single point].
For Cc1ccc(C(=O)NC(=S)NNC(=O)CC#N)cc1, the Potency was active: 11.1 µM.
For CC(=N\Nc1ccc(Cl)cc1)/C(=N/O)C(=O)Nc1ccccc1, the Potency was inconclusive: 28.2 µM [inhibitor, partial curve].
With CCCN1CCC(=NNc2ccc(S(N)(=O)=O)cc2[N+](=O)[O-])CC1 the Potency was inconclusive: 4.47 µM [inhibitor, full curve].
In the case of Cc1nc(SCc2ccc(F)cc2)n[nH]1, the Potency is reported as “inactive”.
Cn1cnc2cc(NCc3cccs3)ccc21 was tested, and the Potency was inconclusive: 17.6 µM [inhibitor, partial curve].
For N#Cc1nc(Cc2ccccc2)oc1NCc1ccccc1Cl, the Potency was inconclusive: 14 µM [inhibitor, single point].
CCOc1ccc(C2NC(=O)C(C#N)=C(S)N2c2ccc(OC)cc2)cc1OC (centres undefined) was tested, and the Potency was inconclusive: 24.9 µM [inhibitor, single point].
With CN(CC(=O)O)S(=O)(=O)c1cccs1 the activity change, negative = inhibition was inconclusive: 32.1% [activator].
With Cc1ccc(Nc2c(N)c(=O)oc3ccccc23)cc1 the Potency was active: 20 µM.
For COc1ccc(NC(=O)Cn2c(CCC(=O)O)ccc2-c2ccc(C)cc2)cc1, the activity change, negative = inhibition was inconclusive: 34.9% [activator].
COc1ccc(OC)c(NC(=O)CN(C)S(=O)(=O)c2ccc3[nH]c4c(c3c2)CCCC4)c1 was tested, and the Potency was inconclusive: 10 µM [inhibitor, single point].
For COc1ccc(N2C(=O)CC(Sc3n[nH]c(-c4ccccc4)n3)C2=O)cc1 (centres undefined), the Potency was inconclusive: 35.5 µM [inhibitor, single point].
In the case of CCOc1ccc(NCc2cccn2-c2nnc(N3CCC(C(=O)NCCCN4CCCCC4)CC3)s2)cc1, the Potency is reported as inconclusive: 12.6 µM [inhibitor, partial curve].
CC(=O)N(Cc1ccc(F)cc1)C1=C(NCCc2ccccc2)C(=O)c2ccccc2C1=O was tested, and the Potency was “inactive”.
For Cc1ccc(C)c(CN2C(=O)c3ccccc3S(=O)(=O)c3ccc(C(=O)N4CCN(c5ccccn5)CC4)cc32)c1, the Potency was “inactive”.
For CCOc1ccc(S(=O)(=O)Nc2ccc(O)c(Sc3ncn[nH]3)c2)cc1, the Potency was inconclusive: 8.91 µM [inhibitor, partial curve].
For CNC(=O)c1nnsc1S(=O)(=O)c1ccc(Cl)cc1, the Potency was “inactive”.
O=c1[nH]c2ccccc2nc1Cc1ccc([N+](=O)[O-])cc1 was tested, and the Potency was inconclusive: 56.2 µM [activator, partial curve, poor fit].
With COc1ccc(C(=O)Nn2cnnc2)cc1 the Potency was inconclusive: 1.41 µM [inhibitor, full curve, poor fit].
In the case of Oc1ccc(/C=N/Nc2ccc(Cl)nn2)cc1O, the Potency is reported as active: 6.26 µM.
With CC1(C)CC(=O)C(c2c[nH]c3ccccc23)C(=O)C1 the Potency was active: 10 µM.
CC1CCN(C(=O)C2CCCN(S(=O)(=O)c3ccc4c(c3)CC(C)N4C(=O)C3CC3)C2)CC1 (centres undefined) was tested, and the Potency was inconclusive: 6.31 µM [inhibitor, full curve].
With O=C(NNc1ccc(Cl)cc1)c1sccc1Cl the Potency was inconclusive: 35.5 µM [inhibitor, partial curve].
For CCCCOc1ccc2c(c1)C(=O)c1cc(O)ccc1-2, the Potency was inconclusive: 39.5 µM [inhibitor, single point].
CCC(CC)c1nn2c(=O)cc(COc3ccc(NC(=O)c4cccc(Cl)c4)cc3)nc2s1 was tested, and the Potency was “inactive”.
With O=C(/C=C/NNC(=O)c1ccccc1O)c1ccccc1 the Potency was inconclusive: 25.1 µM [inhibitor, partial curve].
For COC(=O)c1ccc(Cl)cc1NC(=O)N(Cc1ccc(C)o1)C1CCN(C(C)=O)CC1, the Potency was inconclusive: 7.94 µM [inhibitor, single point].
CC(=O)c1c(N2CCN(C)CC2)[nH]c(-c2ccccc2)nc1=S was tested, and the Potency was inconclusive: 28.2 µM [inhibitor, partial curve].
In the case of COc1ccc(O)c(C(=O)c2cnn(-c3ccccc3)c2)c1, the Potency is reported as inconclusive: 50.1 µM [inhibitor, single point].
In the case of CSc1ccc(-c2nc(O)c3cnccn23)cc1, the Potency is reported as inconclusive: 14.1 µM [inhibitor, partial curve].
Nn1cnnc1N/N=C\c1ccc(-c2ccccc2[N+](=O)[O-])o1 was tested, and the Potency was inconclusive: 22.4 µM [inhibitor, partial curve].
CC(C)(C)C(=O)NC(=S)NNC(=O)c1ccncc1 was tested, and the Potency was inconclusive: 3.16 µM [inhibitor, full curve].
In the case of NC(=S)NN=C1c2ccccc2-c2ccccc21, the Potency is reported as inconclusive: 31.6 µM [inhibitor, single point].
CC(C1CC2CCC1C2)n1c(-c2ccco2)n[nH]c1=S (centres undefined) was tested, and the Potency was inconclusive: 35.5 µM [inhibitor, single point].
In the case of CCOC(=O)c1sc(Nc2nc3ccc(OC)cc3s2)cc1C, the Potency is reported as inconclusive: 25.1 µM [inhibitor, partial curve].
With Cn1c(-c2ccc(F)cc2)cnc1NCc1ccccc1 the Potency was inconclusive: 22.4 µM [inhibitor, single point].
In the case of CC(C)c1ccc(CNc2ccc(N3CCOCC3)cc2)cc1, the Potency is reported as active: 28 µM.
With CCc1ccccc1Nc1cc(C(=O)NC(C)c2ccccc2)c2ccccc2n1 (centres undefined) the Potency was “inactive”.
In the case of COc1ccc(C(c2c(C)[nH]n(-c3ccccc3)c2=O)c2c(C)[nH]n(-c3ccccc3)c2=O)cc1OC, the Potency is reported as inconclusive: 31.6 µM [inhibitor, single point].
For CN(C)[C@@H]1C(=O)C(C(N)=O)=C(O)[C@@]2(O)C(=O)C3=C(O)c4c(O)ccc(Cl)c4[C@@H](O)[C@H]3C[C@@H]12, the Potency was inconclusive: 39.5 µM [inhibitor, single point].
With CN(C)c1ccc(-c2nc3ccccn3c2/N=C/c2ccc(Br)cc2)cc1 the Potency was inconclusive: 39.8 µM [inhibitor, single point].
In the case of C=C(C)c1cccc(C(C)(C)NC(=O)Nc2cccnc2)c1, the Potency is reported as “inactive”.
For O=C(NNc1nc2c(F)cccc2s1)C1COc2ccccc2O1 (centres undefined), the Potency was active: 4.43 µM.
In the case of CCNC(=O)COC(=O)/C=C/c1cccc([N+](=O)[O-])c1, the activity change, negative = inhibition is reported as inconclusive: 33.6% [activator].
With S=C(NCCCNC(=S)Nc1ccccc1)Nc1ccccc1 the Potency was “inactive”.
In the case of Cn1c(-c2ccc(F)cc2)cnc1NCc1cc2c(cc1[N+](=O)[O-])OCO2, the Potency is reported as inconclusive: 35.5 µM [inhibitor, single point].
With Cn1c(=O)[nH]c(=O)c2c1nc(N1CCCCC1)n2C/C=N/NC(=O)c1cc(Br)ccc1O the Potency was inconclusive: 20 µM [inhibitor, partial curve].
In the case of NNC(=S)Nc1ccc(S(=O)(=O)N2CCOCC2)cc1, the Potency is reported as inconclusive: 35.5 µM [inhibitor, single point].
CCCc1[nH][nH]c(=O)c1C(c1ccc(Br)cc1)C(C#N)C#N (centres undefined) was tested, and the Potency was inconclusive: 19.8 µM [inhibitor, partial curve].
With CN1c2ccsc2/C(=N/Nc2ccc(F)cc2)CS1(=O)=O the Potency was inconclusive: 8.84 µM [inhibitor, partial curve].
